Among all 310,000 compounds or so, about 14,000 (4.5%) showed an effect of 50% or more. Effects have a minus sign here. The list shows a part of the results.
The compounds below were run against human ether-à-go-go-related gene (hERG) potassium channel (human, UniProt Q12809) (assay: primary screen, population patch clamp on CHO cells stably expressing hERG).
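Further: peak tail current of the secondary pulse compared with the same well before compound.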

Sequence of human ether-à-go-go-related gene (hERG) potassium channel (Q12809 whole entry, looked up): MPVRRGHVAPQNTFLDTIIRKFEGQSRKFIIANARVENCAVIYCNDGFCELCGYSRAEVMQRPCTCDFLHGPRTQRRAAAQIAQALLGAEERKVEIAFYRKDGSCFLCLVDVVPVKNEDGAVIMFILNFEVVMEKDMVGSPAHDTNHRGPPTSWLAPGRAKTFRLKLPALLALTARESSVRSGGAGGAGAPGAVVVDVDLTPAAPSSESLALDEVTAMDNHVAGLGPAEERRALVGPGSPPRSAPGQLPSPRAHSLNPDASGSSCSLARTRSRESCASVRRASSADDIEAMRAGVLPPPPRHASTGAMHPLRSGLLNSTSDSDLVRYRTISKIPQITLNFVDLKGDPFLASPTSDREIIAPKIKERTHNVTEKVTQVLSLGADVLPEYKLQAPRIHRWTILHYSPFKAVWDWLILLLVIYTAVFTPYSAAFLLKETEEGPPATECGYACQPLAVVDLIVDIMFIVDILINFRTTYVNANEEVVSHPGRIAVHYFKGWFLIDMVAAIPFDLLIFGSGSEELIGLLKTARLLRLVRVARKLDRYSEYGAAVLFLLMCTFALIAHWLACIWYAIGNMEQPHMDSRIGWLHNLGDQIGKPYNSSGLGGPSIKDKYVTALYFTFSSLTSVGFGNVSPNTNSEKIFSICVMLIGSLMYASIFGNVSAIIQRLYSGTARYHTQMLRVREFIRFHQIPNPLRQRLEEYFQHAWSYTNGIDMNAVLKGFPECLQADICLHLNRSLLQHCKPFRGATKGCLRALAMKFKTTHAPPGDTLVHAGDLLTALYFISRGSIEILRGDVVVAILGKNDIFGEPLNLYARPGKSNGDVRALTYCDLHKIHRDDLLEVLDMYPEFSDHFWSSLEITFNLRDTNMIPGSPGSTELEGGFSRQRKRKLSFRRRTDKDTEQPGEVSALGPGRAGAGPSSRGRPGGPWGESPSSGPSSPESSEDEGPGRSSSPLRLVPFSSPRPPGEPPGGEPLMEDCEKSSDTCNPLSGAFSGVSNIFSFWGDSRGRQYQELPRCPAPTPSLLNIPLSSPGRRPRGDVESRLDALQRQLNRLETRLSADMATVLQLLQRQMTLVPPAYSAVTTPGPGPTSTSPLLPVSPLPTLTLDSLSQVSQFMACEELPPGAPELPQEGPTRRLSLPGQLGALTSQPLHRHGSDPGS

Row | Compound | hERG current change (%, negative = inhibition) at 10uM [%]
1 | O=C(N/C(=C\c1ccc(Cl)cc1)C(=O)N1CCOCC1)c1ccc([N+](=O)[O-])cc1 | -83
2 | O=C(c1ccc2ccccc2c1)N1CCCCC1 | 10.5
3 | O=C(CSc1nnnn1C1CC2CCC1C2)Nc1ccnc2ccccc12 (centres unmarked) | -4.96
4 | COc1ccc(C2=NOC(C)(c3nnc(Cc4ccccc4)o3)C2)cc1 (centres unmarked) | 2
5 | Cc1ccc(-c2c(C)c(-c3ccc(F)cc3)nc(N)c2C#N)o1 | -13
6 | Fc1ccc(NC(=S)NN=C2CCCCCC2)cc1 | 5.61
7 | CCCCOC(=O)Nc1nc2ccccc2s1 | -10.1
8 | CCOC(=O)CSC1=C(C#N)C(c2ccc(Cl)cc2)C(C(=O)OC)C(=O)N1 (centres unmarked) | -7.59
9 | Cc1ccc(S(=O)(=O)N2CCN(c3ccc([N+](=O)[O-])c(Sc4nncn4C)c3)CC2)cc1 | -62.3
10 | Oc1nc(-c2ccc(Cl)cc2)n2ccncc12 | 72
11 | COc1cccc(C2=CC(=O)CCC2)c1OC | 12.3
12 | COc1cccc(NC(=S)N2CCN(S(=O)(=O)c3ccc(F)cc3)CC2)c1 | -1.7
13 | O=C(Cn1nnc(-c2cccs2)n1)N1c2ccccc2Sc2ccc(C(F)(F)F)cc21 | 11.6
14 | COc1ccccc1-c1nnc(SC(C(=O)c2c[nH]c3ccccc23)c2ccccc2)n1C (centres unmarked) | 20.8
15 | CC(C)(C)NC(=O)c1ccc(NC(=O)C2COc3ccccc3O2)cc1 (centres unmarked) | -2.96
16 | COc1cccc(CN2CC(C(=O)NCCOc3ccccc3F)CCC2=O)c1 (centres unmarked) | 4.61
17 | Cn1cc(C(=O)Nc2ccc(F)c(F)c2)cn1 | 17.7
18 | O=C(CN1CCN(c2ccccn2)CC1)NCCc1ccccc1 | -9.55
19 | O=C(O)C1C2CCC(C2)C1C(=O)Nc1cc(F)ccc1F (centres unmarked) | 2.97
20 | CN(CC(=O)Nc1c(Cl)cccc1Cl)C(=O)c1cccc(-n2cccc2)c1 | -22.3
21 | COc1cccc(CNC(=O)CN(C)S(=O)(=O)c2cnc[nH]2)c1 | 13.5
22 | O=C(CSc1nnc(NC(=O)c2ccccc2C(=O)O)s1)Nc1ccccc1Cl | 24

Row | Compound | hERG current change (%, negative = inhibition) at 10uM [%]
23 | CC(NC(=O)c1cc([N+](=O)[O-])cc([N+](=O)[O-])c1)c1ccc(-n2ccnc2)cc1 (centres unmarked) | -73.5
24 | COc1cc(C(=O)Nc2ccn(C)n2)ccc1OC(F)F | 8.36
25 | C=C(c1ccc(OC)cc1)c1ccc(OC)cc1 | 4.98
26 | CCOC(=O)c1cccc(NC(=O)C2CCCN(c3nnc(N4CCCC4=O)s3)C2)c1 (centres unmarked) | -4.12
27 | C[C@H]1CN=C2N(CCNC(=O)CCC3CCCCC3)[C@H](Cc3ccc(O)cc3)CN21 | 9.65
28 | CC(C)c1nc(SCC(=O)N2c3ccccc3CC2C)c2ccccc2n1 (centres unmarked) | -12.6
29 | CON1C(=O)C(=O)N(OC)C(C)(C)C1C (centres unmarked) | -8.02
30 | CC(=O)N=c1scc(-c2ccccc2)n1-c1cccc(O)c1 | 7.32
31 | Cc1c(Cl)cccc1NC(=S)N(Cc1ccccc1)Cc1cccnc1 | -2.45
32 | O=C(O)C1CCC(Cn2c(SCc3cc(=O)n4cc(Br)ccc4n3)nc3ccsc3c2=O)CC1 (centres unmarked) | 21.1
33 | COc1ccccc1N1CCN(C(=O)CN2C(=O)C3CCCCC3C2=O)CC1 (centres unmarked) | 22.7
34 | CCc1ccc(NC(=O)C(C)OC(=O)CN2C(=O)NC3(CCCC3)C2=O)cc1 (centres unmarked) | -6.42
35 | Cc1ccc(Cn2nnc3c(=O)n(Cc4ccccc4C)cnc32)cc1 | 9.44
36 | C#Cc1cccc(-n2nnc(C(=O)OC)c2-c2ccccc2)c1 | 19.5
37 | Cc1ccc(C(=O)Nc2ccccc2C(=O)NC(Cc2ccccc2)C(=O)O)cc1 (centres unmarked) | 16.8
38 | Cn1c(NNC(=O)/C=C/c2ccc3c(c2)OCO3)cc(=O)n(C)c1=O | 12.6
39 | CCCCn1c(SCc2nnc(-c3ccccc3)o2)nc2c1c(=O)n(C)c(=O)n2C | -56
40 | CN1CCN(S(=O)(=O)c2ccc3[nH]cc(C(=O)O)c(=O)c3c2)CC1 | -2.95
41 | CN(CC(=O)Nc1ccccc1Cl)C(=O)Cn1cc(C(F)(F)F)cc(Cl)c1=O | -6.27
42 | Cc1ccnc(N2CCC(C(=O)Nc3ccc(Oc4ccccc4)cc3)CC2)n1 | -16.8
43 | COc1ccc(Nc2ncc(C(=O)N3CCC(C(N)=O)CC3)c3ccccc23)cc1 | 11.3
44 | C/C(=N\NC(=O)c1c(Cl)c(C)nn1C)c1ccc(NC(=O)C2CCC2)cc1 | 15.9

From paper PMC4336329 (PLoS ONE, 2015)
